Results from the supplement of paper PMC12217912.
Some of the results follow. Sequences were assembled here from the parent chain. Values near 0.05 are background.

B1: TEV protease; numbered along this chain (parent)
chain: MGESLFKGPRDYNPISSSICHLTNESDGHTTSLYGIGFGPFIITNKHLFRRNNGTLVVQSLHGVFKVKDTTTLQQHLVDGRDMIIIRMPKDFPPFPQKLKFREPQREERICLVTTNFQTKSMSSMVSDTSCTFPSGDGIFWKHWIQTKDGQCGSPLVSTRDGFIVGIHSASNFTNTNNYFTSVPKNFMELLTNQEAQQWVSGWRLNADSVLWGGHKVFMVKPEEPFQPVKEATQL

Variants of: B1
Experiment: raw area under fraction-flipped curve 0-4 h after induction (AUC4h, not background-subtracted), DNA-recorder readout of cleavage of the substrate (dimensionless); higher = more cleavage of the substrate by the protease variant
Details: temperature: 34 °C; time window: 0-4 h after rhamnose induction
Method: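 In vivo DNA recorder in E. coli TOP10(DE3) ΔrhaA at 34 °C. Each TEVp single-site mutant (parent TEVp 0) is paired with a single-site variant of the 7-mer TEVs (canonical ENLYFQ|S). The substrate sits between flexible linkers in a Bxb1-sfGFP-TEVs-SsrA fusion, so cleavage stabilises Bxb1 and speeds flipping of a recombination array, read by NGS. The value is the raw area under the fraction-flipped curve over 0-4 h after rhamnose induction (AUC4h), with ≥20 reads per time point. It is not background-subtracted; inactive controls average about 0.047.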
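Further: Bxb1 expression induced with 0.2% (w/v) L-rhamnose at OD600 near 0.5, cultures sampled hourly, flipped fraction per protease–substrate barcode pair counted by paired-end Illumina sequencing.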

Variant	area with substrate DNLYFQS	area with substrate FNLYFQS	area with substrate GNLYFQS	area with substrate HNLYFQS	area with substrate KNLYFQS	area with substrate NNLYFQS	area with substrate PNLYFQS	area with substrate SNLYFQS	area with substrate TNLYFQS	area with substrate WNLYFQS	area with substrate YNLYFQS	area with substrate LNLYFQS	area with substrate INLYFQS	area with substrate MNLYFQS	area with substrate RNLYFQS	area with substrate VNLYFQS	area with substrate QNLYFQS
K68M	0.0717	0.058	0.0559	0.0737	0.0471	0.0597	0.0736	0.0664	0.0643	0.0584	0.0706	–	–	–	–	–	–
V210F	0.0556	0.0633	–	0.0621	0.0471	–	0.0388	0.0728	0.0548	0.0762	–	0.0614	–	–	–	–	–
I110C	0.0933	–	0.0583	0.0665	0.0445	0.0784	0.0711	0.0563	0.0675	0.0588	0.07	0.056	0.0616	0.0582	0.0689	0.0486	–
G35C	0.0566	–	0.0523	0.0442	0.044	–	–	0.0488	0.0702	–	–	0.0559	–	–	–	–	0.0527
S26M	0.0657	–	0.0655	0.0526	0.0608	0.0616	0.0634	0.061	0.0641	0.0568	0.0531	0.0593	0.0465	0.0651	0.0601	–	–
V57A	0.0727	–	–	0.0725	–	0.0622	0.0737	0.0569	–	0.0727	0.058	0.0686	–	0.0551	–	–	–
G202E	0.0634	–	0.0617	0.0626	–	0.0495	0.0485	–	–	0.07	–	0.0796	0.0542	0.0649	–	–	–
D208G	–	0.0417	0.056	0.0758	–	0.0851	0.0745	–	0.0663	–	–	0.0595	–	0.0636	–	0.0603	–
G8E	–	0.0564	–	–	–	–	–	–	–	–	–	–	–	–	–	–	0.0805
V64S	–	0.0453	–	–	0.0679	0.0804	0.0706	–	0.0711	0.0439	–	–	0.0779	–	–	–	–
P96G	–	0.0645	–	–	0.0557	0.0582	–	–	0.0518	0.0628	–	–	0.061	0.0586	–	–	–
M88S	–	0.0484	–	0.054	0.0455	0.0594	–	0.0549	0.0707	0.0432	–	0.0739	–	0.0771	–	–	0.0703
P184T	–	0.0567	0.0508	0.0605	0.0544	–	0.0555	0.0665	0.0708	0.0543	–	0.054	0.0609	0.0591	0.0671	–	–
P104Q	–	–	0.0465	0.0531	–	–	0.0541	0.0611	0.0497	0.0475	–	0.0513	0.0437	0.0884	–	–	0.0276
G136S	–	–	0.0555	0.05	0.0616	0.064	–	0.058	–	–	–	–	–	–	–	–	–
G80Y	–	–	0.0575	–	–	0.0726	–	–	0.0587	0.0677	0.0597	0.0789	0.0864	–	–	–	–
P184D	–	–	0.0371	0.0503	–	0.0522	–	0.0644	–	0.0563	–	0.0543	0.0433	0.0533	–	–	–
V200R	–	–	–	–	–	–	–	–	0.073	0.0749	–	0.0715	–	–	–	–	–
